From PubChem BioAssay AID540317 (National Center for Advancing Translational Sciences (NCATS), 2011)
In all, about 390,000 compounds went through this assay and about 2,200 (0.56%) were called active. The inconclusive results got no clear call from the source; some entries with a clear call stand among them for comparison. The call rests on the fitted dose curve; in most records, active means well fitted inhibition curve with a large enough effect; inconclusive means small, poorly fitted or top-dose-only effect; inactive means no such curve, though single readings can be large or run the other way. Potencies of inconclusive entries are doubtful fits and often do not repeat.

Molecular target: Chromobox protein homolog 1 (Homo sapiens) (UniProt P83916)
Assay: HTS for Inhibitors of HP1-beta Chromodomain Interactions with Methylated Histone Tails; further: nearly all actives have a fitted effect of over 70% in size
Conditions: AlphaScreen HP1-beta / biotin-H3K9me3 peptide binding; series mostly up to 114 µM; activity change, negative = inhibition: at the top concentration
Procedure, shortened: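 HP1-beta protein (50 nM final) preincubated 30 min at room temperature with biotinylated H3(1-18)K9me3 peptide (50 nM) in PBS pH 7.4, 0.01% Tween-20, then compound added for 30 min. AlphaScreen streptavidin donor/nickel chelate acceptor beads (10 ug/mL final), 30 min dark, luminescence read.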
Potency means the concentration at half of the fitted maximal effect; tags describe the fitted curve by direction and shape.

Chain of UniProt P83916 (P83916 whole entry, looked up): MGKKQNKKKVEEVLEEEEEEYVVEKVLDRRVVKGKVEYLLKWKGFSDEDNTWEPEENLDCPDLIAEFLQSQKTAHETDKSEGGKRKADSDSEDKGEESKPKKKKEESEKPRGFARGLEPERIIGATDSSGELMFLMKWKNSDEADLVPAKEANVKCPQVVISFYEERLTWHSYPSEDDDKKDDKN

SMILES | Potency | activity change, negative = inhibition
Cc1c(CN(C)C)c2c(n1Cc1ccccc1)C(=O)c1ccc(Br)cc1-2 | inconclusive: 22.4 µM [inhibitor, partial curve, poor fit] | –
CC(C)N1CCc2c(sc(NC(=O)CCS(=O)(=O)c3ccccc3)c2C#N)C1 | – | inactive: 34.8%
Cc1ccc(-n2c(N)c(C(=O)N3CCN(C)CC3)sc2=S)cc1 | inconclusive: 3.16 µM [inhibitor, full curve, poor fit] | –
Cc1ccc(-n2c(C)c([N+](=O)[O-])c3ccc(O)c(CN(C)C)c32)cc1 | inconclusive: 28.2 µM [inhibitor, partial curve] | –
O=C(O)C(S)C(S)C(=O)O (configuration not stated) | inconclusive: 39.8 µM [inhibitor, partial curve] | –
COc1ccc(CCNCc2ccc(OCc3ccccc3)cc2)cc1 | – | inactive: 12.2%
COc1ccc2cc(C(N)=O)c(=Nc3ccccc3)oc2c1 | – | inactive: 3.97%
CC1CCN(S(=O)(=O)c2ccc3c(c2)N(C)C(=O)CC(=O)N3C)CC1 | inactive | –
C/C(=N\NC(=S)Nc1ccc(F)cc1)c1ccc2c(c1)OCCO2 | inconclusive: 50.1 µM [inhibitor, partial curve] | –
COc1ccc(N2CSC3=C(C#N)C(c4ccc(OC)c(OC)c4)CC(=O)N3C2)c(OC)c1 (configuration not stated) | inconclusive: 20 µM [inhibitor, full curve] | –
CCc1ccc(CNC(=O)CN2C(=O)C3CCCCN3c3ccc(C(=O)N4CCCC4)cc32)cc1 (configuration not stated) | – | inactive: 17.9% [at 57 µM]
NC(=S)NC(c1ccccc1)c1ccncc1 (configuration not stated) | inconclusive: 10 µM [inhibitor, partial curve, poor fit] | –
CN1CCOc2cc(S(=O)(=O)N3CCN(c4nc(-c5cccs5)nc5ccccc45)CC3)ccc21 | – | inactive: -8.17%
COc1ccc(/C=C2\SC(=O)NC2=S)cc1OC | inconclusive: 31.6 µM [inhibitor, partial curve] | –
CCOc1ccc2nc(NC(=O)c3ccco3)sc2c1 | – | inactive: 37.2%
c1ccc(CC[C@@H]2CC[C@@H](CCc3ccccc3)N2)cc1 | – | inactive: 53.3%
CCN(Cc1ccccc1)S(=O)(=O)c1ccc2c(c1)NC(=O)CC(=O)N2 | inconclusive: 89.1 µM [inhibitor, single point] | –
Cc1ccc2sc(-c3ccc(NC(=O)c4cc(-n5cnnc5)ccc4Cl)cc3)nc2c1 | – | inactive: 40.7%
O=C(O)c1ccc(NN=CC2=C(N3CCOCC3)/C(=C/c3ccccc3)CC2)cc1 | inconclusive: 79.4 µM [inhibitor, partial curve] | –
CC[N+](C)(CC)CCC(c1ccccc1)C1CCCCC1 (configuration not stated) | inconclusive: 79.4 µM [inhibitor, partial curve] | –
Cc1cccc(C(C)(C)C)c1OCCn1ccnc1 | active: 50.1 µM | –
COc1cccc(-c2cc(C(=O)N3CCc4ccccc4C3)[nH]n2)c1 | – | inactive: 38%
O=C(C1CCCN(Cc2ccccc2F)C1)N1CCCCC1 (configuration not stated) | active: 44.7 µM | –
COc1ccc(NCc2ccc([N+](=O)[O-])s2)cc1 | inconclusive: 79.4 µM [inhibitor, partial curve, poor fit] | –

SMILES | Potency | activity change, negative = inhibition
CC(=O)c1ccc2c3c(ccc(O)c13)CC2 | inconclusive: 17.8 µM [inhibitor, full curve] | –
CCOc1ccc(NC2c3ccccc3C(=O)N2Cc2ccc3c(c2)OCO3)cc1 (configuration not stated) | inconclusive: 31.6 µM [inhibitor, full curve] | –
COCC(C)n1c(C)cc(C(=O)COC(=O)c2cc(=O)[nH]c3ccccc23)c1C (configuration not stated) | inconclusive: 50.1 µM [inhibitor, partial curve, poor fit] | –
Cc1ccc(-n2ncc(C(=O)NCCN3CCC(Cc4ccccc4)CC3)c2C2CCN(C(=O)OC(C)(C)C)CC2)cc1 | – | inactive: 1.6%
COc1ccc(NC2=C(Cl)C(=O)N(CCc3ccccc3)C2=O)c(OC)c1 | inconclusive: 3.16 µM [inhibitor, partial curve, poor fit] | –
Cc1cc(NS(=O)(=O)c2ccc(NC(=O)COc3cc(C)c(Br)cc3C(C)C)cc2)no1 | – | inactive: 30.2%
CN(C)c1ccc(CNCCC(Cc2ccccc2)c2ccco2)cc1 (configuration not stated) | inconclusive: 22.4 µM [inhibitor, full curve] | –
CCOC(=O)c1c(C)[nH]c(-c2csc(C)n2)c1C | inconclusive: 89.1 µM [inhibitor, single point] | –
O=S(=O)(Nc1ccccc1N1CCCCC1)c1ccc(Cl)s1 | inconclusive: 7.08 µM [inhibitor, single point] | –
CCOc1c(Br)cc(CNc2ccc(N3CCOCC3)cc2)cc1OC | inconclusive: 15.8 µM [inhibitor, full curve] | –
CC1CCc2sc(C(=O)NCC(C)(C)N3CCOCC3)cc2C1 (configuration not stated) | – | inactive: 28%
CCC1CCc2c(sc(NC(=O)c3cnccn3)c2C(N)=O)C1 (configuration not stated) | inconclusive: 5.62 µM [inhibitor, full curve] | –
COc1cc(CN2CCC(C(=O)NCCC(C)C)CC2)ccc1OCc1ccccc1 | inconclusive: 14.1 µM [inhibitor, partial curve, poor fit] | –
CC1CCN(C(c2ccc(N(C)C)cc2)c2nnnn2Cc2ccc(F)cc2)CC1 (configuration not stated) | inconclusive: 44.7 µM [inhibitor, partial curve] | –
COc1ccc(-c2nn(C)c3sc(C(=O)NCc4ccco4)cc23)cc1OC | – | inactive: -17.6%
CCc1ccccc1NC(=O)CN(c1cc(C(F)(F)F)ccc1Cl)S(=O)(=O)c1ccccc1 | inconclusive: 89.1 µM [inhibitor, single point] | –
Cc1ccc(C(=O)NC(=S)Nc2ccccc2N2CCOCC2)cc1C | inconclusive: 25.1 µM [inhibitor, full curve] | –
CCOc1ccc(-c2nc(C#N)c(NCC(C)C)o2)cc1 | inconclusive: 28.2 µM [inhibitor, single point] | –
COc1cccc(C2C3=C(N=c4s/c(=C\c5ccc(OCC(=O)O)cc5)c(=O)n42)c2ccccc2CC3)c1 (configuration not stated) | – | inactive: -11%
CC12CCC(O)CC1=CCC1C2CCC2(C)C1CCC21CCC(=O)O1 (configuration not stated) | – | inactive: 1.46%
COc1ccc(S(=O)(=O)Nc2ccc(S(=O)(=O)N3CCOCC3)cc2)cc1C | – | inactive: 17.8%
CCCC(=O)Nc1sc2c(c1C#N)CCCCC2 | – | inactive: 6.05%
CCOC(=O)C1=C(c2ccccc2)OC(N)=C(C#N)C1c1cccs1 (configuration not stated) | – | inactive: 7.94%
